Laboratory results taken from PubChem BioAssay AID1508623 (National Center for Advancing Translational Sciences (NCATS), 2021).
About 450 (0.94%) of roughly 48,000 compounds were called active. Roughly 19% stayed inconclusive and do not appear here. Calls come from the whole dose curve; as a rule, active = well fitted inhibition curve with a large enough effect; inconclusive = small, poorly fitted or top-dose-only effect; inactive = no such curve, though single readings can be large or run the other way. The list shows a part of the results.

Assay: Primary qHTS for Identification of Small Molecule Inhibitors of Huntingtin Promoter Activity; note: nearly all actives have a fitted effect of over 50% in size
Details: HEK293 HTT promoter firefly luciferase reporter (activity 0% = vehicle and -100% = no light), 24 h; series mostly up to 57.5 µM; activity change, negative = inhibition: at the top concentration
Outline: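 HEK293 luciferase promoter-reporter cells (2,500/well) plated 24 h, then compounds added at up to 57.5 uM final for 24 h at 37 °C. Firefly luminescence by Dual-Glo, normalized to vehicle (0%) and zero RLU (-100%).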

Activity change, negative = inhibition, inactive:
CCOc1ccc(C2C(C(=O)Nc3ccccc3C)=C(C)Nc3nnnn32)cc1 (stereo unspecified) -13%
Cn1c(=O)c2c(c3ccccc31)OC(=O)CC2c1cccc(Cl)c1 (stereo unspecified) -1.43%
COc1ccccc1/C=C/c1nc(C#N)c(NCC(C)C)o1 24.3%
COc1cc(NC(=O)CN2Cc3ccccc3C2=O)cc(OC)c1OC -8.79%
CCOCCn1cnc2sc(C(=O)Nc3ccccc3C(=O)OC)c(C)c2c1=O -13.8% [at 11.5 µM]
CCOc1cccc(CC(=O)N2CCc3c([nH]c4ccccc34)C2c2ccc(SC)cc2)c1OCC (stereo unspecified) -13.6%
Cc1c(C(=O)NCCO)[n+](=O)c2ccccc2n1[O-] 7.91%
CCOc1ccc(NC(=O)Cn2nc(Cc3ccncc3)c3ccccc3c2=O)cc1 -21.8%
CCCN(CCC)C(=O)c1nn(C)c2c1CSc1ccc(C)cc1-2 -15.1%
CC(C)Cn1c(=O)c2ccccc2n2c(CCC(=O)Nc3ccc(F)cc3)nnc12 -13.6%
COc1ccc(-n2ccnc(NCc3ccccc3Cl)c2=O)cc1OC -3.53%
COc1ccc(C(=O)c2oc3ccccc3c2NC(=O)c2cccc(OC)c2)cc1 -7.02%
CCN(CC)CCOC(=O)c1ccc(NC(=O)c2cc3c(s2)-c2ccccc2OC3)cc1 -8.9%
COc1ccc(CNC(=O)c2sc3nc4n(c(=O)c3c2C)CCCCC4)cc1 1.33%
CCc1ccc(NC(=O)CN2C(=O)c3ccccc3Sc3ccc(C(=O)N4CCCC4)cc32)cc1 -16.6%
Cc1nc(-c2ccc(S(=O)(=O)Nc3ccc(Cl)c(C(F)(F)F)c3)cc2)co1 -19.5%
COc1ccc(CNC(=O)C(CC(C)C)N2Cc3ccccc3C2=O)cc1 (stereo unspecified) -11.8%
Cc1ccc2nc(COc3cccc(NC(=O)c4ccccc4Cl)c3)cc(=O)n2c1 4.8%
CCOc1ccccc1CNC(=O)c1cnc2sc(N(CC)CC)nn2c1=O 1.17%
CC(C)CN(CCNC(=O)c1cc(-c2cccs2)nc2ccccc12)CC(C)C -2.07%
CC(=O)N1CCc2nc3sc(C(=O)Nc4ccc(Cl)cc4F)c(N)c3c(C(F)(F)F)c2C1 0.129%
CC(Oc1ccccc1)C(=O)Nc1nnc2n1CCS2 (stereo unspecified) -18.5%
COC(=O)c1cccc(-n2c(CCC(=O)O)ccc2-c2cccs2)c1 7.86%
COc1ccc(C(=O)Nc2ccc(-c3nnc4n3CCCCC4)cc2)cc1OC -8.28%
COc1ccc(Cn2c(C(=O)O)c(CNCc3ccc(C)o3)c3ccc(C)cc32)cc1 -19.6%
O=C(c1cc2ccc3cccnc3c2[nH]1)N1CCN(c2ccccc2)CC1 21.1%
CC(C)c1nc2ccc(C(=O)NC(C)c3ccccc3)cc2o1 (stereo unspecified) 10%
O=C(NC1CCCC1)c1ccc(CSc2nc3cccnc3n2Cc2ccc(F)cc2)cc1 -3.17%
CCOC(=O)c1ccc2ncc3c(-c4ccccc4)nn(-c4ccc(F)c(Cl)c4)c3c2c1 -6.86%
CCc1ccccc1N1CC(c2nc3ccccc3n2CCCCOc2ccccc2)CC1=O (stereo unspecified) 2.05%
Oc1ccccc1-c1nc(/C=C/c2ccc(F)cc2)nn1-c1ccccc1 6.16%
COc1cccc(/C=C/C(=O)Nc2ccc3nc(N4CCN(C)CC4)cc(C)c3c2)c1OC -23%
CCOc1ccc(NC(=O)CSc2ncc3c(n2)-c2ccccc2N(Cc2ccccc2C)S3(=O)=O)cc1 -11.2%
COc1ccc(CCNC(=O)CS(=O)Cc2nc(-c3ccccc3F)oc2C)cc1OC (stereo unspecified) -11.4%
Cc1cc(C(=O)NCc2ccccc2Cl)c2c(C)nn(-c3ccccc3)c2n1 -0.858%
CCN(CC)CCNC(=O)c1ccc2c(=O)n3nc(Nc4ccccc4OC)sc3nc2c1 -10.3%
O=S1(=O)c2ccccc2N(Cc2cccc(Cl)c2)c2ccccc21 -25.4%
COc1cccc(CNC(=O)C2CCN(c3nnc(-n4c(C)ccc4C)s3)CC2)c1OC 1.48%
CC(=O)c1cc2c(cc1N/C(=N/S(=O)(=O)c1ccc(C)cc1)c1ccc(F)cc1)OCO2 -23.7%
Cc1c(C(=O)N2CCN(c3ccccc3)CC2)sc2nc3n(c(=O)c12)CCC3 -10.3%
CC(C)CCNC(=O)CN1C(=O)CSc2ccc(S(=O)(=O)N3CCCCC3)cc21 -14.4%
CCc1ccc(S(=O)(=O)c2nnn3c2nc(NC(C)C)c2sccc23)cc1 1.65%
COc1ccc(CCNC(=O)c2ccc3c(c2)ncn3-c2ccc(C)cc2C)cc1OC -28.4%
Cc1ccc(NC(=O)c2ccc(-n3c(C)nnc3C)cc2)cc1F -18.3%
CCOC(=O)c1c(-c2ccc(C)cc2)csc1NC(=O)c1nc(SC(C)C)ncc1Cl -5.78%
CCc1ccccc1NC(=O)C1CCCN(C(=O)c2cnn(-c3ccccc3)c2-n2cccc2)C1 (stereo unspecified) -27.9%
CCCc1nc(SCc2cc(=O)c3ccc(C)c(C)c3[nH]2)n[nH]1 -0.748%
CCC(C(=O)NCCc1ccccc1)n1nc(C)n2c(cc3sccc32)c1=O (stereo unspecified) -16.4%
COc1ccc(S(=O)(=O)N2CCN(Cc3nc4ccc(C)cc4o3)CC2)cc1Cl 0%
CCOc1ccccc1NC(=O)c1c(NC(=O)c2cccc(C)c2)sc2c1CCC2 0.996%
Cc1ccc(-c2cc(C(F)(F)F)n3nc(C(=O)NCC45CC6CC(CC(C6)C4)C5)cc3n2)cc1 -10.4%
CCOc1ccc(N2CC(NC(=O)c3ccc(S(=O)(=O)N4CCCCC4)cc3)CC2=O)cc1 (stereo unspecified) -12.2%
CCc1cc2c(cc3c(=O)n(CC(=O)NC4CCC(C)CC4)ncn32)s1 (stereo unspecified) -9.93%
COc1cc2nc(NCc3ccc(C)cc3)n3nc(-c4ccccc4)nc3c2cc1OC 5.48%
COc1ccc(Nc2nc(N)c3cc(OC)c(OC)cc3n2)cc1 2.62%
Brc1c(NC2=NCCN2)ccc2nccnc12 -6.1%
CC1CCc2c(sc(NC(=O)C3c4ccccc4Oc4ccccc43)c2C(=O)OC(C)C)C1 (stereo unspecified) -12.1%
CCOC(=O)c1scc(-c2ccccc2)c1S(=O)(=O)Nc1cc(Cl)c(OC)cc1OC -10.7%
COc1cccc(CNC(=O)c2nn(-c3ccc(C)cc3)c(=O)c3c2c2ccccc2n3C)c1 -25.1%
COC(=O)c1ccc(CSc2nc3c([nH]c4ccccc43)c(=O)n2-c2ccc(OC)cc2)o1 -17.2%
COc1ccc(CNC(=O)c2c3c(nc4ccccc24)C(=O)N(C2CCCCC2)C3)cc1 -11.5%
COc1ccccc1CNS(=O)(=O)c1ccc2c(c1)NC(=O)CC(=O)N2 -6.57%
Cc1ccc(-n2nc(C)c3c(C(=O)NCc4ccccc4)cc(C4CC4)nc32)cc1 -14.6%
Cc1ccc(S(=O)(=O)NCc2nc(-c3cccc(C)c3)no2)cc1 -20.6%
COc1ccccc1CNC(=O)CCCn1c(=O)c2ccccc2n(CC(=O)Nc2c(C)cc(C)cc2C)c1=O -1.41%
COCCCNC(=O)c1ccc2c(c1)N(Cc1ccccc1)C(=O)c1ccccc1S2 -13.3%
O=C(CSc1nc(=O)n(CCN2CCOCC2)c2c1CCC2)Nc1ccccc1 -16.2%
CCOC(=O)c1sc(NC(=O)C2c3ccccc3Oc3ccccc32)c(C(=O)OCC)c1C -39.4%
CCOC(=O)c1cccnc1 11.7%
CCn1cc(C(=O)NCc2ccccc2Cl)c(=O)c2cc(S(=O)(=O)N3CCc4ccccc4C3)ccc21 -10.7%
COc1ccc(C(=O)Nc2nnc(S(=O)(=O)N(CC(C)C)c3ccc(C)cc3)s2)cc1OC -1.4%
CN(C)CCOC(=O)COc1ccc(Cl)cc1 8.24%
O=C(Nc1cc(C(F)(F)F)ccc1Cl)c1cc(-c2ccc3c(c2)OCCO3)on1 -6.83%
COC(=O)c1cccnc1-n1c(=O)c2cccnc2n(CC(=O)Nc2ccc(C)cc2C)c1=O -2.27%
O=C(Nc1ccc(S(=O)(=O)Nc2ncccn2)cc1)c1ccccc1Cl 3.46%
Cc1ccc2c(c1)N(C(=O)CCC(=O)NCc1ccccc1Cl)CC(C)O2 (stereo unspecified) -30.9%
CC(NC(=O)Cn1c(=O)oc2cc(S(=O)(=O)NCc3ccccc3)ccc21)c1ccccc1 (stereo unspecified) -22.8%
Cc1ccccc1Nc1nc(-c2cccc(Cl)c2)c2c(n1)-c1ccccc1OC2 -10.8%
COc1ccc(NC(=O)CSc2nnc(NC(=O)Nc3ccccc3)s2)cc1OC 25.2%
CC(=O)c1ccc(NC(=O)COc2ccccc2-c2nc(-c3cccc(C)c3)no2)cc1 1.51%
CN(C(=O)Cn1cc(S(=O)(=O)Cc2ccccc2Cl)c2ccccc21)c1ccccc1 -27.7%
Cc1ccc(Cl)cc1N1CCN(S(=O)(=O)c2ccc3c(c2)CC(C)N3C(=O)C2CCC2)CC1 (stereo unspecified) -17.8% [at 11.5 µM]
CC(=O)c1ccc(NC(=O)c2sc(-n3nc(C)c(Cc4ccccc4)c3C)nc2C)cc1 2.86%
Cn1c(=O)c2c(ncn2CC(=O)Nc2cccc(Cl)c2Cl)n(C)c1=O -8.97%
Cc1ccccc1C(=O)NC1(C(F)(F)F)C(=O)Nc2c1c(=O)[nH]c(=O)n2-c1ccc(F)cc1 (stereo unspecified) -1.07%
COc1cccc(Cn2c(CNC(=O)c3cc([N+](=O)[O-])ccc3Cl)nc3cccnc32)c1 -21.9%
CCN(Cc1ccccc1)Cc1c(O)ccc2c(=O)c(-c3ccc(Cl)cc3Cl)coc12 -18.9%
Cc1noc(/C=C/c2cccs2)c1S(=O)(=O)N1CCC(C(=O)NCc2ccccc2Cl)CC1 -22.3%
CCCCNC(=O)CCCn1c(=O)c2ccccc2n(CC(=O)Nc2ccccc2OCC)c1=O -3.93%
COc1cc(/C=C(\C#N)c2nc3ccccc3[nH]2)ccc1OCc1cccc(C(F)(F)F)c1 -29%
CCOc1ccccc1NC(=O)c1ccc(F)c(S(=O)(=O)NCc2ccc3c(c2)OCO3)c1 -29.5%
CCOc1ccccc1NC(=O)N1CCc2c(sc(C)c2CC)C1c1ccccc1 (stereo unspecified) -29.6%
COc1ccc(CNc2ncnc3onc(-c4ccc(F)cc4)c23)cc1 -27.8%
O=C(Cn1c(=O)n(-c2ccc(Cl)cc2)c(=O)c2sc3ccccc3c21)NC1CCCC1 -7.83%
c1ccc(CN2CCN(c3ncnc4c3cnn4-c3ccccc3)CC2)cc1 4.1%
CCc1ccc(-n2nc(CO)c(C(=O)NCCCc3ccccc3)n2)cc1 -1.84%
